IC50 is the fitted dose that halves viability relative to control wells, and lower means more sensitive; fits outside the tested doses are given as limits. The AUC spans the tested range (256-fold, ending at the top dose) of the same fit; it is 1 without any effect and falls as sensitivity rises. For some assays here: The top dose, if marked as inferred, was calculated from the reported fits.
Tests used:
Experiment in all cases: Viability of human cancer cell lines after 72 h of drug (GDSC screen)
NVP-BHG712 = compound: Cc1ccc(C(=O)Nc2cccc(C(F)(F)F)c2)cc1Nc1nc(-c2cccnc2)nc2c1cnn2C [NVP-BHG712]; details: top dose 10.24 µM; top dose inferred
Protocol: (§1)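 Human cancer cell lines in 384-well plates, medium with 10% serum, drug for 72 h over a 256-fold dose range (nine 2-fold or five 4-fold steps up to the top dose). Adherent lines were fixed and stained with the nucleic acid dye Syto60, suspension lines read with resazurin; signal relative to control wells, capped at 0 and 100%. One two-parameter sigmoid per drug and line, fitted in a mixed model over all curves with the slope shared within a line.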

IOX2 = compound: O=C(O)CNC(=O)c1c(O)c2ccccc2n(Cc2ccccc2)c1=O [IOX2]; details: top dose 0.1 µM; top dose inferred
Protocol: as §1

Bosutinib = compound: COc1cc(Nc2c(C#N)cnc3cc(OCCCN4CCN(C)CC4)c(OC)cc23)c(Cl)cc1Cl [Bosutinib]; details: top dose 2 µM
Protocol: as §1

Cell Line	AUC (NVP-BHG712)	IC50 (NVP-BHG712)	AUC (IOX2)	IC50 (IOX2)	AUC (Bosutinib)	IC50 (Bosutinib)
786-0 (kidney, adherent)	0.928	> 10200 nM	0.987	> 100 nM		
A375 (melanoma, adherent)	0.71	2210 nM	0.99	> 100 nM	0.67	337 nM
A498 (kidney, adherent)	0.978	> 10200 nM	0.976	> 100 nM	0.814	1870 nM
A549 (lung adenocarcinoma, adherent)			0.98	> 100 nM		
A2780 (ovary, semi-adherent)	0.815	5900 nM	0.983	> 100 nM	0.967	> 2000 nM
ACHN (kidney, adherent)	0.908	> 10200 nM	0.979	> 100 nM	0.711	
AsPC-1 (pancreas, adherent)	0.795	9420 nM	0.971	> 100 nM	0.911	> 2000 nM
BALL-1 (B-cell leukaemia, suspension)			0.997	> 100 nM	0.946	1970 nM
BT-549 (breast, adherent)			0.971	> 100 nM	0.877	> 2000 nM
CADO-ES1 (Ewing sarcoma, suspension)	0.988	> 10200 nM	0.976	> 100 nM	0.984	> 2000 nM
CAKI-1 (kidney, adherent)	0.92	> 10200 nM	0.973	> 100 nM	0.877	> 2000 nM
CHP-134 (neuroblastoma, suspension)	0.872	> 10200 nM				
CL-34 (large intestine, adherent)			0.984	> 100 nM	0.977	> 2000 nM
CL-40 (large intestine, adherent)			0.969	> 100 nM	0.898	> 2000 nM
CML-T1 (chronic myeloid leukaemia, suspension)			0.991	> 100 nM	0.632	270 nM
COR-L32 (small cell lung carcinoma, suspension)			0.954	> 100 nM		
COR-L303 (small cell lung carcinoma, suspension)	0.847	7180 nM				
COR-L311 (small cell lung carcinoma, suspension)	0.873	> 10200 nM				
COR-L321 (lung, suspension)	0.963	> 10200 nM	0.986	> 100 nM	0.966	> 2000 nM
CRO-AP2 (B-cell lymphoma, suspension)			0.989	> 100 nM	0.94	> 2000 nM
D-423MG (glioma, adherent)	0.926	> 10200 nM	0.936	> 100 nM	0.914	> 2000 nM
D-566MG (glioma, adherent)	0.921	> 10200 nM	0.982	> 100 nM	0.849	1470 nM
DIFI (large intestine, adherent)			0.973	> 100 nM	0.731	586 nM

Cell Line	AUC (NVP-BHG712)	IC50 (NVP-BHG712)	AUC (IOX2)	IC50 (IOX2)	AUC (Bosutinib)	IC50 (Bosutinib)
EW-22 (Ewing sarcoma, adherent)			0.987	> 100 nM	0.955	> 2000 nM
H2810 (mesothelioma, adherent)			0.935	> 100 nM		
HCC-366 (non-small cell lung carcinoma, adherent)			0.986	> 100 nM	0.973	> 2000 nM
HCT-116 (large intestine, adherent)	0.722	2620 nM	0.986	> 100 nM		
IGROV-1 (ovary, adherent)			0.968	> 100 nM	0.694	571 nM
JEKO-1 (B-cell lymphoma, suspension)			0.986	> 100 nM	0.75	628 nM
JHOS-4 (ovary, adherent)					0.978	> 2000 nM
Jurkat (T-cell leukaemia, suspension)			0.992	> 100 nM	0.976	> 2000 nM
KARPAS-1106P (B-cell lymphoma, suspension)			0.993	> 100 nM	0.893	1650 nM
KATOIII (stomach, semi-adherent)			0.989	> 100 nM	0.895	> 2000 nM
KNS-62 (lung squamous cell carcinoma, adherent)			0.975	> 100 nM	0.933	> 2000 nM
MEL-HO (melanoma, adherent)			0.974	> 100 nM	0.915	> 2000 nM
MHH-CALL-2 (B-cell leukaemia, suspension)			0.994	> 100 nM	0.993	> 2000 nM
MIA-PaCa-2 (pancreas, adherent)	0.977	> 10200 nM			0.776	876 nM
MKN7 (stomach, adherent)			0.982	> 100 nM	0.948	> 2000 nM
MM1S (myeloma, suspension)					0.927	> 2000 nM
MOLM-16 (acute myeloid leukaemia, suspension)			0.988	> 100 nM	0.834	1090 nM
MOLT-16 (T-cell lymphoblastic leukaemia, suspension)			0.991	> 100 nM	0.725	465 nM
NCC010 (kidney, adherent)			0.969	> 100 nM	0.932	> 2000 nM
NCI-H146 (small cell lung carcinoma, suspension)			0.995	> 100 nM	0.995	> 2000 nM
NCI-H508 (large intestine, semi-adherent)			0.972	> 100 nM	0.894	> 2000 nM
NCI-H835 (lung carcinoid, suspension)			0.99	> 100 nM	0.99	> 2000 nM
NCI-H929 (myeloma, suspension)			0.987	> 100 nM	0.931	> 2000 nM

Cell Line	AUC (NVP-BHG712)	IC50 (NVP-BHG712)	AUC (IOX2)	IC50 (IOX2)	AUC (Bosutinib)	IC50 (Bosutinib)
NCI-H1105 (small cell lung carcinoma, suspension)			0.993	> 100 nM	0.993	> 2000 nM
NCI-H1341 (small cell lung carcinoma, suspension)			0.991	> 100 nM	0.992	> 2000 nM
NCI-H1650 (lung adenocarcinoma, adherent)			0.979	> 100 nM		
NCI-H2066 (small cell lung carcinoma, adherent)			0.944	> 100 nM		
NCI-N87 (stomach, adherent)			0.955	> 100 nM	0.887	> 2000 nM
OCI-LY7 (B-cell lymphoma, suspension)			0.997	> 100 nM	0.629	256 nM
PC-3 (prostate, adherent)	0.979	> 10200 nM	0.981	> 100 nM		
PWR-1E (prostate, adherent)			0.97	> 100 nM	0.917	> 2000 nM
RCH-ACV (B-cell leukaemia, suspension)			0.991	> 100 nM	0.834	997 nM
RH-18 (rhabdomyosarcoma, adherent)			0.983	> 100 nM	0.985	> 2000 nM
SK-GT-2 (stomach, adherent)			0.974	> 100 nM	0.812	1150 nM
SK-MEL-31 (melanoma, adherent)			0.976	> 100 nM	0.985	> 2000 nM
SN12C (kidney, adherent)	0.986	> 10200 nM	0.983	> 100 nM		
SNU-175 (large intestine, suspension)	0.875	9030 nM				
SNU-1040 (large intestine, adherent)	0.892	> 10200 nM	0.966	> 100 nM		
SUP-B8 (B-cell leukaemia, suspension)			0.988	> 100 nM	0.81	1040 nM
SW1116 (large intestine, adherent)	0.986	> 10200 nM	0.984	> 100 nM		
TC-YIK (cervix, suspension)			0.988	> 100 nM	0.986	> 2000 nM
THP-1 (acute myeloid leukaemia, suspension)	0.821	5170 nM	0.99	> 100 nM		
U-266 (myeloma, semi-adherent)			0.981	> 100 nM		
VMRC-LCD (lung adenocarcinoma, adherent)			0.992	> 100 nM	0.99	> 2000 nM
YMB-1-E (breast, adherent)	0.948	> 10200 nM				
ZR-75-30 (breast, adherent)			0.969	> 100 nM	0.936	> 2000 nM

From the supplement of paper PMC4967469
